# Laboratory results as given in the supplement of paper PMC9446081.
# The whole screen tested about 39,000 compounds, of which about 220 (0.56%) showed activity. The list shows a part of the results.
# Tested on: Escherichia coli K-12 BW25113
# Assay: relative growth (OD600 normalised to plate interquartile mean) (fraction); higher = less growth inhibition, active = 0.2 or less
# Settings: 50 µM; LB; incubation time: overnight (16-24 h)
# 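Further: static incubation at 37 °C against the wild-type strain, values averaged over two biological replicates.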
row,Structure (SMILES),relative growth
1,C[C@H](CO)N1C[C@H](C)[C@@H](CN(C)C(=O)Nc2ccc(C(F)(F)F)cc2)Oc2ncc(C3=CCCC3)cc2C1=O,inactive: 1.03
2,Cc1noc(C)c1NC(=O)Nc1ccc2c(c1)C(=O)N([C@@H](C)CO)C[C@@H](C)[C@H](CN(C)CC1CCCCC1)OCCCC[C@@H](C)O2,inactive: 0.968
3,Cc1noc(C)c1S(=O)(=O)Nc1ccc2c(c1)CC(=O)N([C@H](C)CO)C[C@@H](C)[C@H](CN(C)Cc1ccc(-c3ccccc3)cc1)O2,inactive: 0.976
4,C[C@@H]1CN([C@@H](C)CO)C(=O)c2cc(NC(=O)CCC(F)(F)F)ccc2O[C@@H]1CN(C)Cc1ccc(C(F)(F)F)cc1,inactive: 0.992
5,C[C@H]1CN([C@@H](C)CO)C(=O)c2cc(C#Cc3ccncc3)cnc2O[C@H]1CN(C)S(=O)(=O)c1ccccc1F,inactive: 0.974
6,Cc1noc(C)c1S(=O)(=O)N(C)C[C@@H]1Oc2ccc(NS(=O)(=O)c3ccc(F)cc3)cc2C(=O)N([C@@H](C)CO)C[C@@H]1C,inactive: 0.991
7,C=CC[C@@H](CC(=O)N[C@@H](CO)Cc1ccccc1)C(=O)N1CCC[C@@H]1COC(=O)[C@@H](CC=C)NC(=O)OCC1c2ccccc2-c2ccccc21,inactive: 1.03
8,CS(=O)(=O)CC(=O)N1C[C@@H]2CN(Cc3ccoc3)CCO[C@@H]2C1,inactive: 0.985
9,Oc1cc(C2CCCCC2)cc(C2CCCCC2)c1,inactive: 1.02
10,C[C@@H]1CN([C@@H](C)CO)C(=O)c2cc(NS(=O)(=O)c3cccs3)ccc2O[C@@H]1CN(C)S(=O)(=O)c1cn(C)cn1,inactive: 0.982
11,COc1ccc(-c2noc(CSc3nc4sc(C)c(C)c4c(=O)n3-c3ccccc3)n2)cc1OC,inactive: 1.04
12,C[C@H](CO)N1C[C@H](C)[C@H](CN(C)C(=O)Nc2ccc3c(c2)OCO3)Oc2ccc(NC(=O)c3ccncc3)cc2CC1=O,inactive: 0.998
13,C[C@@H]1CCCCO[C@@H](CN(C)S(=O)(=O)c2ccc(F)cc2)[C@H](C)CN([C@H](C)CO)C(=O)c2cc(NC(=O)Nc3ccc4c(c3)OCO4)ccc2O1,inactive: 1.04
14,CC(C)(C)CC(C)(C)c1ccc(OCCOCC[N+](C)(C)Cc2ccccc2)cc1.[Cl-],active: 0.0469
15,Cc1ccc(S(=O)(=O)N(C)C[C@@H]2Oc3ccc(NS(=O)(=O)c4ccc(F)cc4)cc3CC(=O)N([C@@H](C)CO)C[C@H]2C)cc1,inactive: 0.984
16,COc1ccc2c3c(n(c2c1)C)[C@H](CO)N(C[C@]13CCN(CC1)S(=O)(=O)c1ccccc1)C(=O)c1cccnc1,inactive: 0.998
17,CC(C)C(=O)N1CC[C@H]2CN(CC(=O)N(C)C)S(=O)(=O)[C@@H]2CC1,inactive: 0.983
18,Cc1ccc(S(=O)(=O)N(C)C[C@H]2OCCCC[C@H](C)Oc3ccc(NC(=O)C4CCCCC4)cc3C(=O)N([C@@H](C)CO)C[C@H]2C)cc1,inactive: 1.04
19,COC(=O)/C=C/c1cn([C@H]2OC[C@@H](CO)[C@@H]2O)c(=O)[nH]c1=O,inactive: 1.03
20,CNC(=O)CN(C#N)c1nc(C)cc(C)n1,inactive: 1.01

row,Structure (SMILES),relative growth
1,C[C@H]1CN([C@@H](C)CO)C(=O)Cc2cc(NS(=O)(=O)c3cn(C)cn3)ccc2O[C@H]1CN(C)S(=O)(=O)c1cccs1,inactive: 0.997
2,COCC(=O)Nc1ccc2c(c1)C(=O)N(C)[C@H]1CC[C@@H](CC(=O)NCc3ccc(OC)cc3)O[C@@H]1CO2,inactive: 0.993
3,C[C@@H]1CN([C@@H](C)CO)C(=O)c2cc(C#C[C@@H](C)O)cnc2O[C@H]1CN(C)C(=O)Nc1ccc(C(F)(F)F)cc1,inactive: 0.995
4,C[C@H](CO)N1C[C@H](C)[C@H](CN(C)CC2CC2)Oc2ccc(NS(=O)(=O)c3cccs3)cc2CC1=O,inactive: 0.971
5,C[C@@H]1CCCCO[C@H](CN(C)Cc2ccncc2)[C@H](C)CN([C@H](C)CO)C(=O)c2cc(NC(=O)Nc3cccc4ccccc34)ccc2O1,inactive: 0.995
6,COc1ccc(S(=O)(=O)Nc2ccc3c(c2)CC(=O)N([C@@H](C)CO)C[C@H](C)[C@H](CN(C)S(=O)(=O)c2c(C)noc2C)O3)cc1,inactive: 0.996
7,CCCNC(=O)C[C@@H]1CC[C@@H]2[C@H](COc3ccc(NS(=O)(=O)c4ccccc4C)cc3C(=O)N2C)O1,inactive: 0.985
8,CN(C)CC(=O)N[C@@H]1CC[C@@H](CC(=O)NCCN2CCCCC2)O[C@H]1CO,inactive: 0.964
9,O=[N+]([O-])c1ccc(NCCNCCO)cc1,inactive: 0.984
10,C/C=C(\C(C)=N\O)c1ccccc1,inactive: 1.01
11,CN1CCN(C(=O)C[C@H]2C=C[C@H](NC(=O)Nc3ccccc3F)[C@H](CO)O2)CC1,inactive: 0.892
12,COc1ccc(NC(=O)N(C)C[C@H]2OCc3cnnn3CCCC(=O)N([C@H](C)CO)C[C@H]2C)c(OC)c1,inactive: 0.981
13,CNC[C@H]1OCCCC[C@H](C)Oc2ccc(NS(=O)(=O)c3cn(C)cn3)cc2C(=O)N([C@@H](C)CO)C[C@@H]1C,inactive: 0.948
14,Cc1ccc(S[C@]2(C(=O)NCc3ccccc3)CC(=O)N(Cc3ccccc3)[C@@H]2c2ccc(COC(=O)NCCCCCC(=O)NO)cc2I)cc1,inactive: 1.06
15,O=C(C[C@H]1C[C@H]2c3cc(NS(=O)(=O)c4ccc(F)cc4)ccc3O[C@H]2[C@@H](CO)O1)NC1CCCC1,inactive: 1.01
16,C[C@@H]1CCCCO[C@H](CN(C)C(=O)NC2CCCCC2)[C@H](C)CN([C@H](C)CO)C(=O)c2cc(NC(=O)C3CCCCC3)ccc2O1,inactive: 1.02
17,COCC#Cc1cnc2c(c1)C(=O)N([C@@H](C)CO)C[C@H](C)[C@H](CN(C)C(=O)c1ccc3c(c1)OCO3)O2,inactive: 0.996
18,C[C@@H]1CCCCO[C@@H](CN(C)Cc2ccc3c(c2)OCO3)[C@@H](C)CN([C@@H](C)CO)C(=O)c2cc(NC(=O)Nc3ccc(C(F)(F)F)cc3)ccc2O1,inactive: 1.01
19,Oc1ccc([C@H]2CNCCN2)cc1,inactive: 0.933
20,C[C@@H]1CN([C@H](C)CO)C(=O)c2cc(NC(=O)CCC(F)(F)F)ccc2O[C@@H](C)CCCCO[C@H]1CN(C)C(=O)NC1CCCCC1,inactive: 1.02
